The chains are these.
B1: GAUCCAU (DNA:RNA)
RNA: GGGAGACCGGAAUUCAGAUUGUCCGAUCCAUUUAAAUCCCGUCGUAGCCACCA
DNA 1: CAATCTGAATTCCGGTCTCCC
DNA 2: TGGTGGCTACGACGGGATT
B2: UUUGACU (DNA:RNA)
RNA: B1 RNA with G25U, A26U, C28G, C29A, A30C
DNA 1: CAATCTGAATTCCGGTCTCCC
DNA 2: TGGTGGCTACGACGGGATT
B3: UCGCACU (DNA:RNA)
RNA: B1 RNA with G25U, A26C, U27G, C29A, A30C
DNA 1: CAATCTGAATTCCGGTCTCCC
DNA 2: TGGTGGCTACGACGGGATT
B4: GAUUUGU (DNA:RNA)
RNA: B1 RNA with C28U, C29U, A30G
DNA 1: CAATCTGAATTCCGGTCTCCC
DNA 2: TGGTGGCTACGACGGGATT
B5: AUUCAUG (DNA:RNA)
RNA: B1 RNA with G25A, A26U, C29A, A30U, U31G
DNA 1: CAATCTGAATTCCGGTCTCCC
DNA 2: TGGTGGCTACGACGGGATT
B6: GUAAUUU (DNA:RNA)
RNA: B1 RNA with A26U, U27A, C28A, C29U, A30U
DNA 1: CAATCTGAATTCCGGTCTCCC
DNA 2: TGGTGGCTACGACGGGATT
B7: UACUCCA (DNA:RNA)
RNA: B1 RNA with G25U, U27C, C28U, A30C, U31A
DNA 1: CAATCTGAATTCCGGTCTCCC
DNA 2: TGGTGGCTACGACGGGATT
B8: AUUGCAG (DNA:RNA)
RNA: B1 RNA with G25A, A26U, C28G, U31G
DNA 1: CAATCTGAATTCCGGTCTCCC
DNA 2: TGGTGGCTACGACGGGATT
B9: GUUUGAU (DNA:RNA)
RNA: B1 RNA with A26U, C28U, C29G
DNA 1: CAATCTGAATTCCGGTCTCCC
DNA 2: TGGTGGCTACGACGGGATT

Substitutions are numbered along the chain they refer to; changes in the protein carry UniProt numbers. Some of the results follow.

The assay deals with T1, RBFOX1 RRM RbFoxmut (Fox-RRM*) (Homo sapiens, UniProt Q9NWB1 109-208, R118D;E147R;N151S;E152T).
T1 sequence: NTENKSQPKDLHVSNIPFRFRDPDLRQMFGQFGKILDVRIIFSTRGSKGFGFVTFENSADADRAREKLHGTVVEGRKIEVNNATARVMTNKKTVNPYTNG
The assay can be described thus: EMSA; HiTS-Eq, 1 nM pool, 10 min; buffer printed only for the single-RNA assays: 10 mM Tris pH 7.5, 150 mM NaCl, 3.4 mM EDTA, 0.001% NP-40, 30 C. The note with it: tags: His6 N-terminal (pET28a); label: 5' 32P. The gist of the method: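 These values rest on relative association constants, computed from read-count changes of each RNA species versus the control reaction and normalised to the cognate motif. Reads came from free RNA recovered by 8% native PAGE after purified RbFox RRM (wild type or mutant) at increasing concentrations was equilibrated for 10 min in 50 µL with 1 nM of a 5′-radiolabelled pool with 7 randomized nucleotides and DNA-annealed flanks.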
With B1, the binding signal is 0.0599 KA relative to UGCAUGU. With B2 the figure was 0.0705 KA relative to UGCAUGU; with B3, 0.0889 KA relative to UGCAUGU. B4: the binding signal was 0.136 KA relative to UGCAUGU. With B5, the binding signal was 0.127 KA relative to UGCAUGU.

For B6, the binding signal was 0.093 KA relative to UGCAUGU. Regarding B7, the binding signal was 0.0704 KA relative to UGCAUGU. On to B8, for which the binding signal was 0.106 KA relative to UGCAUGU. Next, B9: 0.2 KA relative to UGCAUGU.

These data come from PMC9911399, “Two distinct binding modes provide the RNA-binding protein RbFox with extraordinary sequence specificity”.
